Data as given in paper PMC6212790.
The list shows a part of the results. At the low end of the ranking the order means little.

Target: T1, GST-Rok-C97-191 (UniProt O34857)
T1 sequence: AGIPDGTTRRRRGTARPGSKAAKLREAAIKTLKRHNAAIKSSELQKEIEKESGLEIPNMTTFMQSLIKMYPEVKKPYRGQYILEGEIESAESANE
Experiment: protein binding microarray;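 note: rank score from −0.5 (least bound) to 0.5 (best bound)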
Settings: Rok is a gene silencer of Bacillus subtilis; high values mean tight binding; most listed sequences are background and not binding sites; double strand, one strand shown

Question: With AGGACGCC as the sequence, how does the binding signal read?
Answer: The binding signal was -0.229 E-score.

Question: With GAGTAAGC as the sequence, how does the binding signal read?
Answer: Its binding signal is -0.0766 E-score.

Question: How did the binding signal turn out when TACGCGAA was run?
Answer: The binding signal was 0.134 E-score.

Question: For CGCTCCCA, which binding signal is on record?
Answer: Its binding signal is -0.361 E-score.

Question: AACCCGTC was tested. Which binding signal did it give?
Answer: The binding signal was -0.139 E-score.

Question: CTACAATC was tested. Which binding signal did it give?
Answer: Its binding signal is 0.12 E-score.

Question: Which binding signal does the source give for CACCTTAA here?
Answer: Its binding signal is -0.143 E-score.

Question: With CTCTACCC as the sequence, how does the binding signal read?
Answer: Its binding signal is -0.106 E-score.

Question: With GGCAACGA as the sequence, how does the binding signal read?
Answer: The binding signal was -0.0283 E-score.

Question: AGATGGCT was tested. Which binding signal did it give?
Answer: Its binding signal is -0.202 E-score.

Question: Which binding signal does the source give for GGACGAAA here?
Answer: The binding signal was -0.0336 E-score.

Question: How did the binding signal turn out when CGTTCTAC was run?
Answer: Its binding signal is 0.304 E-score.

Question: How did the binding signal turn out when GTACCGAC was run?
Answer: The binding signal was -0.167 E-score.

Question: CGCGCAAG was tested. Which binding signal did it give?
Answer: Its binding signal is 0.0462 E-score.

Question: With CACATATA as the sequence, how does the binding signal read?
Answer: The binding signal was 0.264 E-score.

Question: How did the binding signal turn out when AGCTAACA was run?
Answer: Its binding signal is 0.0924 E-score.

Question: For CGAAGTTA, which binding signal is on record?
Answer: Its binding signal is 0.116 E-score.

Question: ATCGGAGC was tested. Which binding signal did it give?
Answer: The binding signal was -0.131 E-score.

Question: For ATTTACGA, which binding signal is on record?
Answer: Its binding signal is 0.278 E-score.

Question: CGTAGGAG was tested. Which binding signal did it give?
Answer: Its binding signal is 0.0119 E-score.

Question: Which binding signal does the source give for ACGTGGCC here?
Answer: The binding signal was -0.242 E-score.

Question: How did the binding signal turn out when ACCAAGCC was run?
Answer: Its binding signal is -0.0592 E-score.

Question: AGTGGTCG was tested. Which binding signal did it give?
Answer: The binding signal was -0.0917 E-score.

Question: For GACCCGAC, which binding signal is on record?
Answer: Its binding signal is -0.163 E-score.

Question: With AAGGTAGA as the sequence, how does the binding signal read?
Answer: The binding signal was 0.246 E-score.

Question: Which binding signal does the source give for CAACACAC here?
Answer: The binding signal was 0.00589 E-score.

Question: Which binding signal does the source give for ATTCCAGG here?
Answer: The binding signal was 0.00459 E-score.

Question: With CTCACACA as the sequence, how does the binding signal read?
Answer: The binding signal was 0.0247 E-score.

Question: For GATGTGCC, which binding signal is on record?
Answer: Its binding signal is -0.302 E-score.

Question: GATACTCA was tested. Which binding signal did it give?
Answer: The binding signal was 0.122 E-score.

Question: Which binding signal does the source give for GAGTCTTA here?
Answer: Its binding signal is -0.0226 E-score.

Question: Which binding signal does the source give for AGATTACC here?
Answer: Its binding signal is -0.059 E-score.

Question: ACTTGTCG was tested. Which binding signal did it give?
Answer: The binding signal was -0.122 E-score.

Question: With AATTGTGT as the sequence, how does the binding signal read?
Answer: Its binding signal is 0.154 E-score.

Question: How did the binding signal turn out when CCCACAAC was run?
Answer: Its binding signal is -0.186 E-score.

Question: How did the binding signal turn out when ATTCATCG was run?
Answer: The binding signal was -0.00932 E-score.

Question: How did the binding signal turn out when CGACAGCC was run?
Answer: Its binding signal is 0.0151 E-score.

Question: For CTGTAATC, which binding signal is on record?
Answer: Its binding signal is 0.13 E-score.

Question: With CACGTCCG as the sequence, how does the binding signal read?
Answer: The binding signal was -0.355 E-score.

Question: With GTGGACCA as the sequence, how does the binding signal read?
Answer: The binding signal was -0.213 E-score.

Question: CTTCCGAA was tested. Which binding signal did it give?
Answer: The binding signal was -0.00825 E-score.

Question: For GGCATAGA, which binding signal is on record?
Answer: Its binding signal is -0.031 E-score.

Question: For GTCGTACA, which binding signal is on record?
Answer: The binding signal was 0.15 E-score.

Question: How did the binding signal turn out when AGTTGCGA was run?
Answer: Its binding signal is 0.0368 E-score.

Question: For GACTTCTA, which binding signal is on record?
Answer: The binding signal was 0.111 E-score.

Question: TCCGAACA was tested. Which binding signal did it give?
Answer: The binding signal was 0.0669 E-score.

Question: How did the binding signal turn out when ATCCTAGA was run?
Answer: Its binding signal is -0.156 E-score.

Question: AGCTGGTC was tested. Which binding signal did it give?
Answer: Its binding signal is -0.0483 E-score.

Question: With ACCGCGGA as the sequence, how does the binding signal read?
Answer: Its binding signal is -0.158 E-score.

Question: With CGAAGACA as the sequence, how does the binding signal read?
Answer: Its binding signal is -0.146 E-score.

Question: Which binding signal does the source give for AACAGGTG here?
Answer: Its binding signal is 0.0862 E-score.

Question: Which binding signal does the source give for ACTATCTG here?
Answer: The binding signal was 0.158 E-score.

Question: With CCTTGGGC as the sequence, how does the binding signal read?
Answer: Its binding signal is -0.109 E-score.

Question: CCTGTCGA was tested. Which binding signal did it give?
Answer: The binding signal was -0.126 E-score.

Question: Which binding signal does the source give for GCAAGGAA here?
Answer: Its binding signal is -0.0861 E-score.

Question: TAGCATCA was tested. Which binding signal did it give?
Answer: Its binding signal is -0.0379 E-score.

Question: With GGCTTACA as the sequence, how does the binding signal read?
Answer: The binding signal was -0.105 E-score.

Question: For CCCCATCG, which binding signal is on record?
Answer: The binding signal was -0.208 E-score.

Question: How did the binding signal turn out when ACTCCAAC was run?
Answer: The binding signal was -0.227 E-score.

Question: With ACTTGCTA as the sequence, how does the binding signal read?
Answer: The binding signal was 0.134 E-score.

Question: For ACTGAGGA, which binding signal is on record?
Answer: Its binding signal is -0.157 E-score.

Question: GTTCTCTA was tested. Which binding signal did it give?
Answer: The binding signal was 0.219 E-score.

Question: With CGGCACAA as the sequence, how does the binding signal read?
Answer: The binding signal was -0.156 E-score.

Question: Which binding signal does the source give for GCCGATCC here?
Answer: Its binding signal is -0.185 E-score.

Question: ATCTGCTC was tested. Which binding signal did it give?
Answer: The binding signal was -0.194 E-score.

Question: For AAAGTACT, which binding signal is on record?
Answer: Its binding signal is 0.224 E-score.

Question: For ACTTGTCC, which binding signal is on record?
Answer: Its binding signal is 0.00953 E-score.

Question: With TACAGGCA as the sequence, how does the binding signal read?
Answer: The binding signal was -0.102 E-score.

Question: Which binding signal does the source give for AACTTCAT here?
Answer: The binding signal was 0.128 E-score.

Question: For ACATGAGT, which binding signal is on record?
Answer: Its binding signal is -0.0137 E-score.

Question: Which binding signal does the source give for CCAATTAG here?
Answer: Its binding signal is -0.111 E-score.

Question: For AGTATCCA, which binding signal is on record?
Answer: The binding signal was 0.0514 E-score.

Question: How did the binding signal turn out when GACCATCA was run?
Answer: Its binding signal is -0.203 E-score.

Question: AAAAAGTT was tested. Which binding signal did it give?
Answer: Its binding signal is 0.203 E-score.

Question: For CCTTTCAC, which binding signal is on record?
Answer: The binding signal was -0.131 E-score.

Question: Which binding signal does the source give for ACTGATAG here?
Answer: Its binding signal is 0.0768 E-score.

Question: For AAGCGCCG, which binding signal is on record?
Answer: The binding signal was -0.116 E-score.

Question: For ATGCGGGA, which binding signal is on record?
Answer: Its binding signal is 0.0721 E-score.

Question: With CTACGAGC as the sequence, how does the binding signal read?
Answer: Its binding signal is -0.077 E-score.

Question: With TAAACAAA as the sequence, how does the binding signal read?
Answer: Its binding signal is 0.0269 E-score.

Question: For AACTCATC, which binding signal is on record?
Answer: The binding signal was 0.0637 E-score.

Question: How did the binding signal turn out when GCGGTACC was run?
Answer: The binding signal was 0.0121 E-score.

Question: For ACGCGGAA, which binding signal is on record?
Answer: Its binding signal is -0.0676 E-score.

Question: How did the binding signal turn out when CGTCTAGC was run?
Answer: Its binding signal is -0.0248 E-score.

Question: For AGGCATAG, which binding signal is on record?
Answer: The binding signal was -0.0417 E-score.

Question: With CAGTGGTC as the sequence, how does the binding signal read?
Answer: The binding signal was -0.19 E-score.

Question: For AGAATTAG, which binding signal is on record?
Answer: Its binding signal is 0.155 E-score.

Question: For TAACATGA, which binding signal is on record?
Answer: Its binding signal is 0.182 E-score.

Question: How did the binding signal turn out when CATATGGA was run?
Answer: Its binding signal is 0.0214 E-score.

Question: How did the binding signal turn out when ATGGGCTC was run?
Answer: The binding signal was -0.211 E-score.

Question: Which binding signal does the source give for CCTTCGTA here?
Answer: The binding signal was -0.106 E-score.

Question: With AAGAAATC as the sequence, how does the binding signal read?
Answer: Its binding signal is 0.11 E-score.

Question: With GTCGTCTA as the sequence, how does the binding signal read?
Answer: The binding signal was -0.0652 E-score.

Question: Which binding signal does the source give for GGATCATA here?
Answer: The binding signal was 0.02 E-score.
